Measured values published in PubChem BioAssay AID938 (National Center for Advancing Translational Sciences (NCATS), 2007).
Out of some 73,000 compounds screened, about 1,800 (2.5%) were called active. The inconclusive results got no clear call from the source; some entries with a clear call stand among them for comparison. The call rests on the fitted dose curve; in most records, active means well fitted activation curve with a large enough effect; inconclusive means small, poorly fitted or top-dose-only effect; inactive means no such curve, though single readings can be large or run the other way. No potency is given beside an inconclusive call; the fits are too rough.

assay: qHTS Assay for Agonists of the Thyroid Stimulating Hormone Receptor: Activators of Intracellular cAMP Concentrations in Parental HEK 293; conditions: parental HEK293 CNG cAMP sensor, membrane potential fluorescence; activation: at 57.1 µM (top of the series) unless noted; further: nearly all actives have a fitted effect of over 55% in size; on activation: % of control where 0% means no effect
Method in brief: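 Parental HEK 293 cells stably expressing a cAMP-gated CNG channel were loaded with membrane potential dye containing 100 uM RO 20-1724 for 60 min. Compound added for 30 min; depolarization read as fluorescence intensity at 590 nm.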
Potency means the concentration at half of the fitted maximal effect; tags describe the fitted curve by direction and shape.

Row | Structure (SMILES) | Potency | activation
1 | CC(C)N(Cc1nc(-c2ccc(Cl)cc2)no1)C(=O)CCC1CCCC1 | active: 20 µM | 
2 | Cc1ccc2oc(NC(=O)N3CCOCC3)cc(=O)c2c1 |  | inactive: -29.8%
3 | CCC(c1nnnn1C1CCCCC1)N1CCN(C2CCCC2)CC1 (stereo not given) | active: 5.01 µM | 
4 | COCC(=O)N(Cc1cc2cc(OC)ccc2[nH]c1=O)c1ccccc1OC | inconclusive [activator, single point] | 
5 | COC(=O)/C=C(\C)NC(=O)c1cccs1 | inconclusive [activator, single point] | 
6 | Cc1cc(C)n(-c2ncnc3sc4c(c23)CCCC4)n1 | inconclusive [activator, partial curve] | 
7 | CCn1cc(C(=O)O)c(=O)c2cc(F)c(N3CCN(C(=O)Nc4ccccc4)CC3)cc21 | inconclusive [activator, single point] | 
8 | COc1ccc(C[C@H](O)CN2CCOCC2)cc1 |  | inactive: 7.73% [at 11.4 µM]
9 | CCCC(C(=O)NCc1ccc(OC)cc1)N(Cc1ccco1)C(=O)c1snc(C(N)=O)c1N (stereo not given) | inconclusive [activator, single point] | 
10 | N#Cc1ccsc1NC(=O)CSc1ncnc2ccccc12 |  | inactive: 21.6%
11 | CCOc1ccccc1COC(=O)c1cccc(-n2cnnn2)c1 | inconclusive [activator, single point] | 
12 | CCCCC(c1nnnn1CC1CCCO1)N1CCN(c2cccc(C)c2C)CC1 (stereo not given) | inconclusive [activator, full curve] | 
13 | Cc1ccccc1Cn1c(=O)n(Cc2ccco2)c(=O)c2ccccc21 | inconclusive [activator, single point] | 
14 | CCOC(=O)c1cc2c3ccccc3n(CC)c2nc1N | inconclusive [activator, single point] | 
15 | O=[N+]([O-])c1c(Cl)cc(Cl)cc1Cl | inconclusive [activator, single point] | 
16 | C=CCNC(=O)c1c(N)n(-c2cccc(S(N)(=O)=O)c2)c2nc3ccccc3nc12 |  | inactive: -4.85%
17 | Cc1c(C(=O)N2CCN(c3ccccn3)CC2)sc2ncnc(N3CCN(c4ccccc4)CC3)c12 | inconclusive [activator, partial curve] | 
18 | COc1ccc2c(c1)N(CC[C@H]1CCCCN1C)c1ccccc1S2 |  | inactive: -8.51% [at 11.4 µM]
19 | Cc1cc2c(=O)n(Cc3ccco3)c(SCC(=O)c3ccc(Cl)s3)nc2s1 | inconclusive [activator, partial curve] | 
20 | CCCN(CCC)CCCNC(=O)c1cc2c(=O)n(C)c3ccccc3c2n1C | inconclusive [activator, single point] | 
21 | Clc1ccc(-n2nnnc2-c2ccccc2)cc1Cl | active: 25.1 µM | 
22 | O=c1oc2ccccc2c(O)c1CN1CCCCC1 | inconclusive [activator, partial curve] | 
23 | CN(C)Cc1ccc(C(C)(C)C)cc1-c1cc(C(C)(C)C)ccc1CN(C)C |  | inactive: 0.862% [at 11.4 µM]

Row | Structure (SMILES) | Potency | activation
24 | OC(COc1c(Cl)cc(Cl)cc1Cl)CN1CCCCC1 (stereo not given) | inconclusive [activator, single point] | 
25 | CCC1Sc2ccccc2N(CC(=O)NCCC(C)C)C1=O (stereo not given) | inconclusive [activator, partial curve] | 
26 | C=C(Br)Cn1c(CCC)nc2ccccc21 | inconclusive [activator, single point] | 
27 | COc1ccccc1-n1cnc2cc(NS(=O)(=O)c3ccccc3)ccc21 | inconclusive [activator, partial curve] | 
28 | CN1CCN(c2ccc(C(=O)c3ccc(F)cc3)cc2)CC1 |  | inactive: 11.8% [at 11.4 µM]
29 | COc1cc2nc(C3CCC3)n(NC(=O)C(OC(C)=O)c3ccccc3)c(=O)c2cc1OC (stereo not given) | inconclusive [activator, single point] | 
30 | COc1ccc(C(=O)c2coc3ccc(O)c(CN4CCOCC4)c23)cc1 |  | inactive: 15.5%
31 | CCC(c1nnnn1Cc1ccccc1)N(Cc1ccco1)Cc1cc2cc(OC)ccc2[nH]c1=O (stereo not given) | inconclusive [activator, partial curve] | 
32 | O=C(NC1CCS(=O)(=O)C1)c1ccc(-c2ccc(Br)cc2)o1 (stereo not given) |  | inactive: -1.58%
33 | CC1(C)[C@@H]2CC[C@@](C)(C2)[C@H]1OC(=O)c1ccccc1C(=O)O |  | inactive: 0.267% [at 11.4 µM]
34 | CCOC(=O)CN(C(=O)Cn1nnc2ccccc21)C(C(=O)NCCOC)c1ccccc1 (stereo not given) |  | inactive: 7.44%
35 | CC(C)(Oc1ccc(-c2ccco2)cc1)C(=O)O | inconclusive [activator, single point] | 
36 | O=S(=O)(c1ccc(Oc2ncnc3scc(-c4ccccc4)c23)cc1)N1CCOCC1 | inconclusive [activator, partial curve] | 
37 | O=C(Nc1cccc(F)c1)N1CCCC2(CCN(S(=O)(=O)c3ccccc3)CC2)C1 | inconclusive [activator, partial curve] | 
38 | COc1ccc(COC(=O)C2=C(C)NC(=O)NC2c2ccc(O)c(OC)c2)cc1 (stereo not given) | inconclusive [activator, single point] | 
39 | N=c1ccn2c(n1)O[C@H]1[C@@H](OP(=O)(O)O)[C@H](CO)O[C@H]12 |  | inactive: 5.47% [at 11.4 µM]
40 | CCc1nnc(NC(=O)CSc2nnc(-c3ccoc3C)n2-c2ccc(C)cc2)s1 |  | inactive: 22%
41 | COc1ccccc1OCCn1c(=O)sc2ccccc21 | inconclusive [activator, partial curve] | 
42 | O=C1C(O)CC2c3ccccc3CC3(CCCC3)N12 (stereo not given) | inconclusive [activator, single point] | 
43 | COc1ccc(-c2noc(CCC(=O)NCCCN3CCC(C)CC3)n2)cc1 | inconclusive [activator, single point] | 
44 | Cn1c(C(=O)N2CCCC2)cc2c(=O)n(C)c3ccccc3c21 | inconclusive [activator, single point] | 
45 | O=c1cc(CN2CCN(CCO)CC2)c2cc3c(cc2o1)CCC3 | inconclusive [activator, single point] | 
